Test results: the supplement of paper PMC8728848
The list shows a part of the results.

Key:
Test in all cases: glycan array binding signal (z-score within array); higher = stronger binding
Conditions in all cases: glycan notation: IUPAC condensed, linker removed
[1] = target: Neu5Ac(a2-3)Gal(b1-4)GlcNAc(b1-3)Gal(b1-4)GlcNAc(b1-3)Gal(b1-4)GlcNAc
How it was run: (§1)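 Arrays were curated from the Consortium for Functional Glycomics database, 3228 in total, and kept only where the protein sequence was available. Binding is expressed as a within-array Z-score. This score was averaged across arrays of the same protein sequence at different concentrations or buffers and across linkers, and negative values can be read as non-binding.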

[2] = target: Neu5Ac(a2-3)Gal(b1-4)GlcNAc(b1-3)Gal(b1-4)GlcNAc(b1-3)Gal(b1-4)GlcNAc(b1-2)Man(a1-3)[Neu5Ac(a2-3)Gal(b1-4)GlcNAc(b1-3)Gal(b1-4)GlcNAc(b1-3)Gal(b1-4)GlcNAc(b1-2)Man(a1-6)]GalNAc
How it was run: as §1

[3] = target: Neu5Ac(a2-3)Gal(b1-4)GlcNAc(b1-3)Gal(b1-4)GlcNAc(b1-3)GalNAc
How it was run: as §1

[4] = target: Neu5Ac(a2-3)Gal(b1-4)GlcNAc(b1-3)Gal(b1-4)GlcNAc(b1-3)[Neu5Ac(a2-3)Gal(b1-4)GlcNAc(b1-3)Gal(b1-4)GlcNAc(b1-6)]GalNAc
How it was run: as §1

[5] = target: Neu5Ac(a2-3)Gal(b1-4)GlcNAc(b1-3)Gal(b1-4)GlcNAc(b1-6)[Gal(b1-3)]GalNAc
How it was run: as §1

[6] = target: Neu5Ac(a2-3)Gal(b1-4)GlcNAc(b1-3)Gal(b1-4)[Fuc(a1-3)]GlcNAc
How it was run: as §1

[7] = target: Neu5Ac(a2-3)Gal(b1-4)GlcNAc(b1-3)GalNAc
How it was run: as §1

[8] = target: Neu5Ac(a2-3)Gal(b1-4)GlcNAc(b1-3)[Neu5Ac(a2-3)Gal(b1-4)GlcNAc(b1-6)]GalNAc
How it was run: as §1

[9] = target: Neu5Ac(a2-3)Gal(b1-4)GlcNAc(b1-6)GalNAc
How it was run: as §1

[10] = target: Neu5Ac(a2-3)Gal(b1-4)GlcNAc(b1-6)[Gal(b1-3)]GalNAc
How it was run: as §1

[11] = target: Neu5Ac(a2-3)Gal(b1-4)GlcNAc(b1-6)[Neu5Ac(a2-3)Gal(b1-3)]GalNAc
How it was run: as §1

[12] = target: Neu5Ac(a2-3)Gal(b1-4)GlcNAc6S
How it was run: as §1

[13] = target: Neu5Ac(a2-3)Gal(b1-4)[Fuc(a1-3)]GlcNAc
How it was run: as §1

[14] = target: Neu5Ac(a2-3)Gal(b1-4)[Fuc(a1-3)]GlcNAc(b1-2)Man
How it was run: as §1

[15] = target: Neu5Ac(a2-3)Gal(b1-4)[Fuc(a1-3)]GlcNAc(b1-3)Gal
How it was run: as §1

[16] = target: Neu5Ac(a2-3)Gal(b1-4)[Fuc(a1-3)]GlcNAc(b1-3)Gal(b1-4)GlcNAc
How it was run: as §1

[17] = target: Neu5Ac(a2-3)Gal(b1-4)[Fuc(a1-3)]GlcNAc(b1-3)Gal(b1-4)[Fuc(a1-3)]GlcNAc(b1-3)Gal(b1-4)[Fuc(a1-3)]GlcNAc
How it was run: as §1

[18] = target: Neu5Ac(a2-3)Gal(b1-4)[Fuc(a1-3)]GlcNAc(b1-3)GalNAc
How it was run: as §1

[19] = target: Neu5Ac(a2-3)Gal(b1-4)[Fuc(a1-3)]GlcNAc(b1-6)[Gal(b1-3)]GalNAc
How it was run: as §1

[20] = target: Neu5Ac(a2-3)Gal(b1-4)[Fuc(a1-3)]GlcNAc(b1-6)[Neu5Ac(a2-3)Gal(b1-3)]GalNAc
How it was run: as §1

[21] = target: Neu5Ac(a2-3)Gal(b1-4)[Fuc(a1-3)]GlcNAc6S
How it was run: as §1

[22] = target: Neu5Ac(a2-3)Gal6S(b1-4)GlcNAc
How it was run: as §1

[23] = target: Neu5Ac(a2-3)Gal6S(b1-4)[Fuc(a1-3)]GlcNAc
How it was run: as §1

Neu5Ac(a2-3)GalNAc = target: Neu5Ac(a2-3)GalNAc
How it was run: as §1

[24] = target: Neu5Ac(a2-3)GalNAc(b1-4)GlcNAc
How it was run: as §1

[25] = target: Neu5Ac(a2-3)[GalNAc(b1-4)]Gal(b1-4)Glc
How it was run: as §1

[26] = target: Neu5Ac(a2-3)[GalNAc(b1-4)]Gal(b1-4)GlcNAc
How it was run: as §1

[27] = target: Neu5Ac(a2-3)[GalNAc(b1-4)]Gal(b1-4)GlcNAc(b1-3)GalNAc
How it was run: as §1

[28] = target: Neu5Ac(a2-3)[Neu5Ac(a2-6)]GalNAc
How it was run: as §1

Neu5Ac(a2-6)Gal = target: Neu5Ac(a2-6)Gal
How it was run: as §1

[29] = target: Neu5Ac(a2-6)Gal(b1-3)GlcNAc(b1-3)[Gal(b1-4)GlcNAc(b1-6)]Gal(b1-4)Glc
How it was run: as §1

Neu5Ac(a2-6)Gal(b1-4)Glc = target: Neu5Ac(a2-6)Gal(b1-4)Glc
How it was run: as §1

[30] = target: Neu5Ac(a2-6)Gal(b1-4)GlcNAc
How it was run: as §1

[31] = target: Neu5Ac(a2-6)Gal(b1-4)GlcNAc(b1-2)Man
How it was run: as §1

[32] = target: Neu5Ac(a2-6)Gal(b1-4)GlcNAc(b1-2)Man(a1-3)Man(b1-4)GlcNAc(b1-4)GlcNAc
How it was run: as §1

[33] = target: Neu5Ac(a2-6)Gal(b1-4)GlcNAc(b1-2)Man(a1-3)[Gal(b1-4)GlcNAc(b1-2)Man(a1-6)]Man(b1-4)GlcNAc(b1-4)GlcNAc
How it was run: as §1

[34] = target: Neu5Ac(a2-6)Gal(b1-4)GlcNAc(b1-2)Man(a1-3)[GlcNAc(b1-2)Man(a1-6)]Man(b1-4)GlcNAc(b1-4)GlcNAc
How it was run: as §1

[35] = target: Neu5Ac(a2-6)Gal(b1-4)GlcNAc(b1-2)Man(a1-3)[GlcNAc(b1-4)][Neu5Ac(a2-6)Gal(b1-4)GlcNAc(b1-2)Man(a1-6)]Man(b1-4)GlcNAc(b1-4)GlcNAc
How it was run: as §1

B1: Si Bti9 1b-V5-his (Solanum lycopersicum) (protein)
chain: MQCNRGCDLALASFYVWRGSNLTLISEMFSTSIADIVSYNNRDNIPNQDSVIAGTRINIPFRCDCLNDGEVLGHAFPYRVKSGDTYDLVARNYSDLTTAQWMMKFNSYPENNIPNTVNLSVVVNCSCGNSDVSKDFGLFVTYPVRAEDNLTSVASAANVSEDIIRRYNPAAVSILDIGQGIIYIPGRDRNGNFPPLPTSTDGLSGGAKKGGRADPAFLYKVVINSKLEGKPIPNPLLGLDSTRTGHHHHHH
[1]
  glycan array binding signal (z-score): -0.171
[2]
  glycan array binding signal (z-score): 0.446
[3]
  glycan array binding signal (z-score): -0.372
[4]
  glycan array binding signal (z-score): -0.241
[5]
  glycan array binding signal (z-score): -0.158
[6]
  glycan array binding signal (z-score): -0.379
[7]
  glycan array binding signal (z-score): 0.013
[8]
  glycan array binding signal (z-score): -0.16
[9]
  glycan array binding signal (z-score): -0.254
[10]
  glycan array binding signal (z-score): -0.108
[11]
  glycan array binding signal (z-score): -0.2
[12]
  glycan array binding signal (z-score): 10.6
[13]
  glycan array binding signal (z-score): -0.288
[14]
  glycan array binding signal (z-score): -0.404
[15]
  glycan array binding signal (z-score): -0.323
[16]
  glycan array binding signal (z-score): -0.373
[17]
  glycan array binding signal (z-score): -0.328
[18]
  glycan array binding signal (z-score): -0.144
[19]
  glycan array binding signal (z-score): -0.108
[20]
  glycan array binding signal (z-score): -0.156
[21]
  glycan array binding signal (z-score): -0.237
[22]
  glycan array binding signal (z-score): -0.293
[23]
  glycan array binding signal (z-score): -0.449
Neu5Ac(a2-3)GalNAc
  glycan array binding signal (z-score): -0.221
[24]
  glycan array binding signal (z-score): -0.306
[25]
  glycan array binding signal (z-score): -0.275
[26]
  glycan array binding signal (z-score): -0.24
[27]
  glycan array binding signal (z-score): 0.153
[28]
  glycan array binding signal (z-score): -0.269
Neu5Ac(a2-6)Gal
  glycan array binding signal (z-score): 3.19
[29]
  glycan array binding signal (z-score): -0.275
Neu5Ac(a2-6)Gal(b1-4)Glc
  glycan array binding signal (z-score): -0.238
[30]
  glycan array binding signal (z-score): -0.164
[31]
  glycan array binding signal (z-score): -0.175
[32]
  glycan array binding signal (z-score): -0.363
[33]
  glycan array binding signal (z-score): -0.165
[34]
  glycan array binding signal (z-score): -0.274
[35]
  glycan array binding signal (z-score): -0.315
